Results filed as inconclusive are left out. A number of entries come with more than one value. This is not the full list of results. The source may hold further records. The records of an entry differ for a reason that is not stated; dose, time, organism, isomer or construct need not be as stated for each record.
Test system: CD8F1 mice, subcutaneous mammary adenocarcinoma, T/C%
Assay: NCI In Vivo Anticancer Drug Screen. Data for tumor model Mammary Adenocarcinoma CD8F1 (subcutaneous) in CD8F1
Conditions: higher = larger tumour
Description: The antitumor activity of compounds was measured in mice bearing transplantable tumors. Survival or tumor size were measured and the results are expressed as the measurement made in the treated group (T) divided by the measurement made in the vehicle treated control group (C). The tumor model used in this assay is Mammary Adenocarcinoma CD8F1 (subcutaneous) in CD8F1

[1] = endpoint: median tumor weight (est.), dose: 400.0 mg/kg/injection, schedule: Q07DX005 (ip), vehicle: Klucel (hydroxypropylcellulose) (HPC)

CCCCC(=O)OCC(=O)[C@]1(O)Cc2c(O)c3c(c(O)c2[C@@H](OC2CC(NC(=O)C(F)(F)F)C(O)C(C)O2)C1)C(=O)c1c(OC)cccc1C3=O (some centres undefined)
T/C (endpoint: median tumor weight change, dose: 133.0 mg/kg/injection, schedule: Q01DX001 (ip), vehicle: clinical formulation): -15 % of control and 31 % of control | T/C (endpoint: median tumor weight change, dose: 200.0 mg/kg/injection, schedule: Q01DX001 (ip), vehicle: clinical formulation): -31 % of control and 53 % of control | T/C (endpoint: median tumor weight change, dose: 300.0 mg/kg/injection, schedule: Q01DX001 (ip), vehicle: clinical formulation): -41 % of control and 8 % of control

COC1=C2C[C@@H](C)C[C@@H](OC)[C@@H](O)[C@H](C)/C=C(\C)[C@@H](OC(N)=O)[C@H](OC)/C=C\C=C(/C)C(=O)NC(=CC1=O)C2=O
T/C (endpoint: median tumor weight change, dose: 10.0 mg/kg/injection, schedule: Q01DX001 (ip), vehicle: saline with Tween-80): 43 % of control and 107 % of control

COc1ccc2nc3cc(Cl)ccc3c(NCCNCCNCCNc3c4ccc(Cl)cc4nc4ccc(OC)cc34)c2c1
T/C (endpoint: median tumor weight (est.), dose: 100.0 mg/kg/injection, schedule: Q07DX005 (ip), vehicle: saline with Tween-80): 24 % of control and 92 % of control

NC(=O)c1csc(C2OC(CO)C(O)C2O)n1 (centres undefined)
T/C (endpoint: median tumor weight change, dose: 250.0 mg/kg/injection, schedule: Q01DX001 (ip), vehicle: water): 48 % of control and 101 % of control | T/C (endpoint: median tumor weight change, dose: 1000.0 mg/kg/injection, schedule: Q01DX001 (ip), vehicle: water): 40 % of control and 89 % of control

Cc1ccc(C2NC(=O)c3ccccc3N2)s1 (centres undefined)
T/C (endpoint: median tumor weight (est.), dose: 100.0 mg/kg/injection, schedule: Q07DX005 (ip), vehicle: Klucel (hydroxypropylcellulose) (HPC)): 40 % of control and 122 % of control | T/C (endpoint: median tumor weight (est.), dose: 200.0 mg/kg/injection, schedule: Q07DX005 (ip), vehicle: Klucel (hydroxypropylcellulose) (HPC)): 77 % of control and 183 % of control | T/C [1]: 72 % of control and 178 % of control

C1CN1c1nc(N2CC2)nc(N2CC2)n1
T/C (endpoint: median tumor weight change, dose: 1.25 mg/kg/injection, schedule: Q01DX001 (ip), vehicle: suspension in saline): 14 % of control and 40 % of control

CC(=O)O[C@@H]1CO[C@H]2O[C@H]3[C@@H](C(C=O)=C[C@H](O)[C@@H]4C5=C(C(C)C)CC[C@]5(C)CC[C@@]34C)[C@@]2(O)C1=O
T/C (endpoint: median tumor weight change, dose: 7.5 mg/kg/injection, schedule: Q01DX001 (ip), vehicle: Klucel (hydroxypropylcellulose) (HPC)): 69 % of control and 97 % of control

CCC[CH2][Sn]1([CH2]CCC)[O]C2C(CO)OC(n3ccc(N)nc3=O)C2[O]1 (centres undefined)
T/C (endpoint: median tumor weight (est.), dose: 0.78 mg/kg/injection, schedule: Q07DX005 (ip), vehicle: Klucel (hydroxypropylcellulose) (HPC)): 63 % of control and 294 % of control | T/C (endpoint: median tumor weight (est.), dose: 1.56 mg/kg/injection, schedule: Q07DX005 (ip), vehicle: Klucel (hydroxypropylcellulose) (HPC)): 12 % of control, 97 % of control, 116 % of control | T/C (endpoint: median tumor weight (est.), dose: 6.25 mg/kg/injection, schedule: Q07DX005 (ip), vehicle: Klucel (hydroxypropylcellulose) (HPC)): 92 % of control, 123 % of control, 311 % of control | T/C (endpoint: median tumor weight (est.), dose: 12.5 mg/kg/injection, schedule: Q07DX005 (ip), vehicle: Klucel (hydroxypropylcellulose) (HPC)): 54 % of control and 165 % of control

ClCCCN1CCN(CCCl)CC1
T/C (endpoint: median tumor weight change, dose: 40.0 mg/kg/injection, schedule: Q01DX001 (ip), vehicle: saline): -43 % of control, -17 % of control, -13 % of control

CC1c2ccccc2CC(CCN(C)C)c2ccccc21 (centres undefined)
T/C (endpoint: median tumor weight change, dose: 31.25 mg/kg/injection, schedule: Q01DX001 (ip), vehicle: saline with Tween-80): 42 % of control and 89 % of control

CC[C@@]1(O)C(=O)OCc2c1cc1n(c2=O)Cc2cc3ccccc3nc2-1
T/C (endpoint: median tumor weight change, dose: 3.0 mg/kg/injection, schedule: Q01DX001 (ip), vehicle: saline with Tween-80): 93 % of control and 119 % of control

COc1cccc2c1C(=O)c1c(O)c3c(c(O)c1C2=O)C[C@@](O)(C(=O)CO)C[C@@H]3OC1CC(N)C(O)C(C)O1 (some centres undefined)
T/C (endpoint: mean tumor weight, dose: 1.0 mg/kg/injection, schedule: Q07DX006 (ip), vehicle: saline): 59 % of control and 106 % of control | T/C (endpoint: mean tumor weight, dose: 2.0 mg/kg/injection, schedule: Q07DX006 (ip), vehicle: saline): 9 % of control and 90 % of control | T/C (endpoint: median tumor weight change, dose: 10.0 mg/kg/injection, schedule: Q01DX001 (ip), vehicle: water): -57 % of control and 2 % of control

COc1cc2c3c(cccc3c1)C(=O)N(CCN(C)C)C2=O
T/C (endpoint: median tumor weight change, dose: 50.0 mg/kg/injection, schedule: Q01DX001 (ip), vehicle: saline with Tween-80): 73 % of control and 99 % of control | T/C (endpoint: median tumor weight change, dose: 100.0 mg/kg/injection, schedule: Q01DX001 (ip), vehicle: saline with Tween-80): 45 % of control and 90 % of control

CN(CCN(C)C(=O)CCOS(C)(=O)=O)C(=O)CCOS(C)(=O)=O
T/C (endpoint: median tumor weight change, dose: 250.0 mg/kg/injection, schedule: Q01DX001 (ip), vehicle: suspension in saline): -40 % of control and 11 % of control

CC(=O)N(C)c1ccc(Nc2cc(C)[nH]c3ccc4ncnc4c23)cc1
T/C (endpoint: median tumor weight change, dose: 62.5 mg/kg/injection, schedule: Q01DX001 (ip), vehicle: saline): 45 % of control and 74 % of control

CN(C1=NS(=O)(=O)N=C(N(C)c2ccccc2)O1)c1ccccc1
T/C [1]: 32 % of control and 81 % of control | T/C (endpoint: median tumor weight change, dose: 200.0 mg/kg/injection, schedule: Q01DX001 (ip), vehicle: Klucel (hydroxypropylcellulose) (HPC)): 47 % of control, 75 % of control, 103 % of control | T/C (endpoint: median tumor weight change, dose: 400.0 mg/kg/injection, schedule: Q01DX001 (ip), vehicle: Klucel (hydroxypropylcellulose) (HPC)): 64 % of control, 91 % of control, 154 % of control

COc1nc(C(Cl)(Cl)Cl)c(Cl)c(OC)c1Cl
T/C (endpoint: median tumor weight change, dose: 90.0 mg/kg/injection, schedule: Q01DX005 (ip), vehicle: Klucel (hydroxypropylcellulose) (HPC)): -24 % of control and 27 % of control | T/C (endpoint: median tumor weight change, dose: 135.0 mg/kg/injection, schedule: Q01DX005 (ip), vehicle: Klucel (hydroxypropylcellulose) (HPC)): -32 % of control and 15 % of control | T/C (endpoint: median tumor weight change, dose: 250.0 mg/kg/injection, schedule: Q01DX001 (ip), vehicle: Klucel (hydroxypropylcellulose) (HPC)): 39 % of control, 64 % of control, 84 % of control | T/C (endpoint: median tumor weight change, dose: 500.0 mg/kg/injection, schedule: Q01DX001 (ip), vehicle: Klucel (hydroxypropylcellulose) (HPC)): 5 % of control, 49 % of control, 66 % of control | T/C (endpoint: median tumor weight change, dose: 1000.0 mg/kg/injection, schedule: Q01DX001 (ip), vehicle: Klucel (hydroxypropylcellulose) (HPC)): -53 % of control, -1 % of control, 11 % of control

COC(=O)C[C@](O)(CCC(C)(C)O)C(=O)O[C@@H]1C(OC)=C[C@]23CCCN2CCc2cc4c(cc2[C@H]13)OCO4
T/C (endpoint: median tumor weight change, dose: 5.0 mg/kg/injection, schedule: Q01DX001 (ip), vehicle: saline): 59 % of control and 113 % of control

N=c1c(C(=O)OCc2ccccc2)ncc(CCl)n1O
T/C (endpoint: median tumor weight change, dose: 125.0 mg/kg/injection, schedule: Q01DX001 (ip), vehicle: saline with Tween-80): 75 % of control and 101 % of control

O=c1cc(CCl)[nH]nc1CCl
T/C (endpoint: median tumor weight (est.), dose: 25.0 mg/kg/injection, schedule: Q07DX005 (ip), vehicle: saline with Tween-80): 42 % of control and 72 % of control

S=C(Nc1ccc(Cl)c(Cl)c1)N1c2ccccc2-n2cccc2C1c1cccnc1 (centres undefined)
T/C (endpoint: median tumor weight change, dose: 125.0 mg/kg/injection, schedule: Q01DX001 (ip), vehicle: Klucel (hydroxypropylcellulose) (HPC)): 57 % of control and 101 % of control

ClCCCN1CCCCC1CCl (centres undefined)
T/C (endpoint: median tumor weight (est.), dose: 12.5 mg/kg/injection, schedule: Q07DX005 (ip), vehicle: saline): 45 % of control and 95 % of control

OC(CCl)CN1CC[N+]2(CC1)CC[N+]1(CCN(CC(O)CCl)CC1)CC2 (centres undefined)
T/C (endpoint: median tumor weight change, dose: 400.0 mg/kg/injection, schedule: Q01DX001 (ip), vehicle: saline): 61 % of control and 89 % of control

O=C(Nc1nncs1)c1cccs1
T/C (endpoint: median tumor weight change, dose: 250.0 mg/kg/injection, schedule: Q01DX001 (ip), vehicle: saline with Tween-80): 90 % of control and 163 % of control | T/C (endpoint: median tumor weight change, dose: 500.0 mg/kg/injection, schedule: Q01DX001 (ip), vehicle: saline with Tween-80): 30 % of control, 84 % of control, 95 % of control | T/C (endpoint: median tumor weight change, dose: 1000.0 mg/kg/injection, schedule: Q01DX001 (ip), vehicle: saline with Tween-80): 30 % of control, 74 % of control, 83 % of control | T/C (endpoint: median tumor weight change, dose: 2000.0 mg/kg/injection, schedule: Q01DX001 (ip), vehicle: saline with Tween-80): 8 % of control, 34 % of control, 52 % of control

CO[C@@]12[C@@H]3N[C@@H]3CN1C1=C(C(=O)C(NCC3CCCO3)=C(C)C1=O)[C@@H]2COC(N)=O (some centres undefined)
T/C (endpoint: median tumor weight change, dose: 12.5 mg/kg/injection, schedule: Q01DX001 (ip), vehicle: distilled water + Tween-80): 28 % of control and 57 % of control | T/C (endpoint: median tumor weight change, dose: 25.0 mg/kg/injection, schedule: Q01DX001 (ip), vehicle: distilled water + Tween-80): -10 % of control and 24 % of control

OCC1OC(n2cnc3c2nnn2ccnc32)C(O)C1O (centres undefined)
T/C (endpoint: mean tumor weight, dose: 300.0 mg/kg/injection, schedule: Q07DX005 (ip), vehicle: saline): 44 % of control and 207 % of control

CC1OC1C(=O)C1(O)C(C)C(O)C23OC2(C(O)c2c(O)cccc2C3=O)C1O (centres undefined)
T/C (endpoint: median tumor weight change, dose: 5.0 mg/kg/injection, schedule: Q01DX001 (ip), vehicle: Klucel (hydroxypropylcellulose) (HPC)): 43 % of control and 110 % of control | T/C (endpoint: median tumor weight change, dose: 20.0 mg/kg/injection, schedule: Q01DX001 (ip), vehicle: Klucel (hydroxypropylcellulose) (HPC)): 30 % of control, 87 % of control, 95 % of control

Source: PubChem BioAssay AID220 (DTP/NCI, 2004)
